In the supplement of paper PMC9446081:
Hit rate of the full screen: of about 39,000 compounds, about 220 (0.56%) showed activity. The list shows a part of the results.

System: Escherichia coli K-12 BW25113
Assay: relative growth (OD600 normalised to plate interquartile mean) (fraction); higher = less growth inhibition, active = 0.2 or less
Settings: 50 µM; LB; incubation time: overnight (16-24 h)
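Further: static incubation at 37 °C against the wild-type strain, values averaged over two biological replicates.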

Compound	relative growth
C[C@@H]1CCCCO[C@@H](CN(C)CC2CC2)[C@@H](C)CN([C@H](C)CO)C(=O)c2cc(NC(=O)NC3CCCCC3)ccc2O1	inactive: 1.06
COc1ccc(NC(=O)N(C)C[C@@H]2OCCCC[C@@H](C)Oc3ccc(NS(=O)(=O)c4ccc(F)cc4)cc3C(=O)N([C@H](C)CO)C[C@H]2C)cc1	inactive: 1
Cc1cccc(S(=O)(=O)N2C[C@@H](O)COC[C@@H]3O[C@H](CC(=O)NCc4ccc5c(c4)OCO5)CC[C@H]32)c1	inactive: 0.892
Cc1ccc(S(=O)(=O)N(C)C[C@@H]2Oc3ccc(NS(C)(=O)=O)cc3CC(=O)N([C@H](C)CO)C[C@H]2C)cc1	inactive: 1.01
Cc1ccc(-c2ccc3c(c2)O[C@H](CN(C)C(=O)Nc2ccc(C(F)(F)F)cc2)[C@@H](C)CN([C@H](C)CO)S3(=O)=O)cc1	inactive: 0.763
C[C@@H]1CN([C@H](C)CO)C(=O)c2cc(NS(C)(=O)=O)ccc2O[C@@H]1CN(C)C(=O)NC1CCCCC1	inactive: 0.938
OCc1cc(O)c2c(O)c3c(O)cccc3c(O[C@@H]3O[C@H](CO)[C@@H](O)[C@H](O)[C@H]3O)c2c1	inactive: 1
C[C@@H]1CCCCO[C@@H](CN(C)C(=O)Nc2cccc3ccccc23)[C@H](C)CN([C@H](C)CO)C(=O)c2cc(NC(=O)Cc3ccccc3)ccc2O1	inactive: 1.04
CC(=O)N(C)[C@H]1C(=O)C(=O)c2ccccc2C1=O	inactive: 0.914
C[C@@H]1CN([C@@H](C)CO)C(=O)c2cc(NC(=O)CCCN(C)C)ccc2O[C@@H](C)CCCCO[C@H]1CN(C)C(=O)Nc1cccc2ccccc12	inactive: 1.01
C[C@@H]1CCCCO[C@@H](CN(C)C(=O)Nc2cccc3ccccc23)[C@@H](C)CN([C@H](C)CO)C(=O)c2cc(NC(=O)CCCCCC(=O)Nc3ccccc3N)ccc2O1	inactive: 0.999
OC[C@@H]1COCCN1Cc1ccccc1	inactive: 1.01
COc1ccc(S(=O)(=O)N(C)C[C@H]2OCCCC[C@@H](C)Oc3ccc(NC(=O)Nc4cccc5ccccc45)cc3C(=O)N([C@@H](C)CO)C[C@@H]2C)cc1	inactive: 1.06
COc1ccccc1C#Cc1ccc2c(c1)O[C@@H](CN(C)Cc1cncnc1)[C@@H](C)CN([C@H](C)CO)S2(=O)=O	inactive: 1.04
COCC(=O)N(C)C[C@H]1Oc2cc(C#C[C@H](C)O)ccc2S(=O)(=O)N([C@@H](C)CO)C[C@H]1C	inactive: 1.01
O=C(O)c1ccc(O)cn1	inactive: 1.01
CCCCCCCCNC(C)C(O)c1ccc(SC(C)C)cc1 (centres undefined)	inactive: 0.434
C[C@@H]1CN([C@@H](C)CO)C(=O)c2cc(NC(=O)Nc3ccc(C(F)(F)F)cc3)ccc2O[C@@H](C)CCCCO[C@H]1CN(C)Cc1ccncc1	inactive: 0.956
C[C@@H]1CCCCO[C@@H](CN(C)S(=O)(=O)c2cccs2)[C@@H](C)CN([C@@H](C)CO)C(=O)c2cc(NC(=O)Nc3ccc4c(c3)OCO4)ccc2O1	inactive: 1.01
O=C(Nc1nccs1)[C@@H]1[C@@H](CO)[C@@H]2Cn3c(cccc3=O)[C@@H]2N1C(=O)C1CC1	inactive: 0.999

Compound	relative growth
CN(C)C(=O)C[C@H]1CC[C@H]2[C@@H](COc3ccc(NS(=O)(=O)c4cccc(F)c4)cc3C(=O)N2C)O1	inactive: 1.02
C[C@@H](N)C(=O)OC(C)(C)Cc1ccc(Cl)cc1	inactive: 0.985
CC(C)NC(=O)Nc1ccc2c(c1)CC(=O)N([C@H](C)CO)C[C@@H](C)[C@@H](CN(C)S(=O)(=O)c1ccccc1)O2	inactive: 1.01
COc1cccc(NC(=O)N[C@H]2C=C[C@@H](CC(=O)N3CCOCC3)O[C@@H]2CO)c1	inactive: 0.898
COc1cccc(S(=O)(=O)N[C@H]2CC[C@@H](CC(=O)NC3CCC3)O[C@@H]2CO)c1	inactive: 0.989
CC[C@@](C)(Nc1n[nH]c(=O)[nH]c1=O)C(=O)O	inactive: 1.03
C=CCCC(=O)O[C@@H](c1ccccc1)[C@@H](C)N(C)C(=O)[C@H](CC=C)NC(=O)OCC1c2ccccc2-c2ccccc21	inactive: 1.02
CCOn1ccnc1	inactive: 0.993
C[C@H]1CN([C@@H](C)CO)C(=O)c2cc(NS(C)(=O)=O)ccc2O[C@H]1CN(C)S(=O)(=O)c1ccc(Cl)cc1	inactive: 0.974
O=C(O)c1cc2ccc(O)c(=O)c-2c(O)c(O)c1	inactive: 0.987
C[C@@H]1CCCCO[C@@H](CN(C)C(=O)Nc2cccc3ccccc23)[C@H](C)CN([C@@H](C)CO)C(=O)c2cc(NC(=O)NC3CCCCC3)ccc2O1	inactive: 1.03
C=CCOC(=O)[C@H]1[C@@H]2C(=O)O[C@@H](c3ccccc3)[C@@H](c3ccccc3)N2[C@@H](c2ccc(OCCOC(=O)[C@H]3C[C@H]4C(=O)NCC(=O)N4[C@H]3c3ccc(O)cc3)cc2)[C@]12C(=O)Nc1ccc(I)cc12	inactive: 1.06
C[C@@H]1CN([C@H](C)CO)C(=O)c2cc(NC(=O)CCN3CCOCC3)ccc2O[C@@H]1CN(C)C(=O)NC1CCCCC1	inactive: 1.03
C[C@H]1CCCCO[C@@H](CN(C)S(=O)(=O)c2ccccc2)[C@@H](C)CN([C@@H](C)CO)C(=O)c2cc(NC(=O)Nc3ccc(C(F)(F)F)cc3)ccc2O1	inactive: 0.983
C[C@H]1CN([C@@H](C)CO)C(=O)c2cc(C#Cc3cccc(F)c3)cnc2O[C@H]1CN(C)CC1CCOCC1	inactive: 1.02
C[C@@H]1CN([C@H](C)CO)C(=O)c2cc(NC(=O)C3CCCCC3)ccc2O[C@@H](C)CCCCO[C@H]1CN(C)Cc1ccc(C(=O)O)cc1	inactive: 0.997
O=C(C[C@@H]1C[C@H]2c3cc(NS(=O)(=O)c4ccc(F)cc4)ccc3O[C@H]2[C@H](CO)O1)NCCN1CCCCC1	inactive: 1.01
C[C@H]1CN([C@@H](C)CO)C(=O)c2cccc(NS(=O)(=O)c3cn(C)cn3)c2O[C@H]1CN(C)C(=O)Nc1ccc(F)cc1	inactive: 0.979
CC(C)NC(=O)Nc1cccc2c1O[C@@H](CN(C)S(=O)(=O)c1ccc(Cl)cc1)[C@@H](C)CN([C@@H](C)CO)C2=O	inactive: 1.01
